This note sets out measurements from PubChem BioAssay AID2060353 (Molecular Pharmacology Branch, DTP, NCI, 2025).

Certain results were filed several times, with different values. This list holds those alone. The source may hold further records. The values listed for one entry are repeats in other runs, samples, wells, individuals or studies.

The assay relates to 521955-158-R2-J5-PDC spheroids with stroma, growth inhibition. The assay is described as follows: Anticancer human tumor 521955-158-R2-J5-PDC patient-derived pancreatic carcinoma cell line growth inhibition [TAK]. Conditions: compound alone 9.49 µM; stronger effect = lower value. The text has this: Combinatorial screen of targeted agents with TAK-243 and ipatasertib in multi-cell type tumor spheroids
A high-throughput screen of multi-cell type tumor spheroids was designed to identify active combinations of targeted small molecules and TAK-243 or ipatasertib. Complex spheroids include a stromal component modeled by human endothelial cells (HUVEC) and fibroblasts modeled by human mesenchymal stem cells (MSCs). The concentration ranges selected for each drug and investigational agent were based upon clinically achievable concentrations if the clinical Cmax of the agent was known.
Compounds. […] If the clinical Cmax for an agent had not been determined, the highest concentration tested was 10 microM.
NCI60 Cell Culture. […] The optimal seeding densities for each of the cell lines at each time point assessed were determined prior to performing the concentration response studies. […]
For the pre-screen, cell seeding densities were determined from a titration spanning the range from 5,000 to 313 cells per well. […]
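Further: spheroids exposed to drugs for seven days before readout; 100% = DMSO vehicle control viability.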

Take `CC(C)NCC(C(=O)N1CCN(c2ncnc3c2C(C)CC3O)CC1)c1ccc(Cl)cc1` (stereo unspecified): the viability, T/C (in general, the result in the treated group divided by that in the control group, in per cent) is on record as 86.3, 93.2, 96.1, 99.9, 124, 99.3, 75.4, 82.8, 101, 96.8%.
